In paper PMC4336329 (PLoS ONE, 2015):
The whole screen tested about 310,000 compounds, of which about 14,000 (4.5%) showed an effect of 50% or more. The effect is printed as a negative number. Some of the results follow.

Biological target: human ether-à-go-go-related gene (hERG) potassium channel (human, UniProt Q12809)
Experiment: primary screen, population patch clamp on CHO cells stably expressing hERG
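Note: peak tail current of the secondary pulse compared with the same well before compound.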

Sequence of human ether-à-go-go-related gene (hERG) potassium channel (Q12809 whole entry, looked up): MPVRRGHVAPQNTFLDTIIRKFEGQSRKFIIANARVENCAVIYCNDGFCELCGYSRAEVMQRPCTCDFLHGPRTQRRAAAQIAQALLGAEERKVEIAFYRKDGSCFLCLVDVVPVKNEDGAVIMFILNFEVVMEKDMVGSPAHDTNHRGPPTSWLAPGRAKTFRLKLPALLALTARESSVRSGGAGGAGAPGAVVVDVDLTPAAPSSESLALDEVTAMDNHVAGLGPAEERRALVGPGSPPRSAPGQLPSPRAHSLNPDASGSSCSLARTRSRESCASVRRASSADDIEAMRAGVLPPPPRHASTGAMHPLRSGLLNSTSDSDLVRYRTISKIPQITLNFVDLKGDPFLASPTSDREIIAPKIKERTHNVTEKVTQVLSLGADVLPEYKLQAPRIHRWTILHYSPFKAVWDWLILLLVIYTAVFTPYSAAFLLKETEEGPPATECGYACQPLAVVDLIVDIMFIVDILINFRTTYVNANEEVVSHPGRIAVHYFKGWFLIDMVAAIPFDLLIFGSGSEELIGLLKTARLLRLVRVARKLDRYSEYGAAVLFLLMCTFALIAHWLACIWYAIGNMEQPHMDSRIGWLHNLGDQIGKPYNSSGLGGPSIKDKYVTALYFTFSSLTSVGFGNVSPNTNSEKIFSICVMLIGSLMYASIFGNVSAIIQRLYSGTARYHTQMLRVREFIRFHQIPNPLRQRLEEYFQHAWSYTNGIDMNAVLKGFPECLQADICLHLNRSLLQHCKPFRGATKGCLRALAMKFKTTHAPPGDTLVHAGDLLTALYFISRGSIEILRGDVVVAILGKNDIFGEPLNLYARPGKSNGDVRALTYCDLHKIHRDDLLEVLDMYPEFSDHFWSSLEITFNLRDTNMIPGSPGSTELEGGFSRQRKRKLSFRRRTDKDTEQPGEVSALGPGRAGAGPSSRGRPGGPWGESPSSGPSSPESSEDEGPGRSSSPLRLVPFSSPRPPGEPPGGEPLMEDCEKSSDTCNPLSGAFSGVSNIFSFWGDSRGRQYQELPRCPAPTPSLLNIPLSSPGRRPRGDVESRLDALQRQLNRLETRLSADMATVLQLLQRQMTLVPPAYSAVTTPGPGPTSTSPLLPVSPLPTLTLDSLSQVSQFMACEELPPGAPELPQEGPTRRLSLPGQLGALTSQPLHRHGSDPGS

| Compound | hERG current change (%, negative = inhibition) at 10uM [%] |
| --- | --- |
| COc1ccc(-c2cc(C(=O)O)c(C)o2)cc1OC | 0.595 |
| CN(CC(=O)Nc1cccc(S(=O)(=O)N2CCOCC2)c1)CC(=O)Nc1ccc(Cl)c(C(F)(F)F)c1 | -13.6 |
| C=CCNc1nc(-c2ccccn2)nnc1-c1ccccc1 | -3.49 |
| CC(=O)Nc1ccc(NC(=O)CSCCc2ccccn2)cc1 | 14.4 |
| Cc1c(N(C)C(=O)C2CCCN2S(=O)(=O)c2ccccc2)c(=O)n(-c2ccccc2)n1C (stereo not drawn) | 14.2 |
| Cc1cc(C)n(-c2ccc(NC(=O)C3CCCCN3C(=O)c3occc3C)cc2)n1 (stereo not drawn) | -4.52 |
| COc1ccc(-c2csc(Nc3cccnc3)n2)cc1 | 24 |
| O=C(O)C1CCN(C(=O)c2ccc3c(c2)OCO3)CC1 | 14 |
| CN(CC(=O)Nc1cccc(F)c1)C(=O)c1cc2c(s1)CCCCC2 | 11.7 |
| O=C(CN1C(=O)CCC1=O)Nc1cccc2c1C(=O)NC2=O | 5.07 |
| COc1cc2nc(NC(=O)c3ccc(Cl)cc3)sc(=O)c2cc1OC | 12.8 |
| COc1ccc(CNC(=O)[C@@H]2CC=C[C@@H]3CCN(C4CC4)C(=O)[C@@H]32)cc1 | 0.828 |
| N=c1c(C(=O)NCc2ccc3c(c2)OCO3)cc2c(=O)n3ccccc3nc2n1Cc1cccnc1 | -80.4 |
| O=C(O)c1cccc(Cl)n1 | 0.759 |
| COc1ccc(-c2csc(NC(=S)NC(=O)c3cccs3)n2)cc1Br | 3.71 |
| CCC(C)C1C(C#N)=C(N)Oc2n[nH]c(C)c21 (stereo not drawn) | -0.113 |
| COC(=O)c1c(NC(=O)c2c(OC)cccc2OC)sc2c1C(C(=O)OC)CC2 (stereo not drawn) | 1.5 |
| O=C(Cn1nc(C(=O)O)c2ccccc2c1=O)NCC1CCCO1 (stereo not drawn) | 20 |
| Cc1cccn2c(CNCC(C)Oc3cccnc3)c(C(=O)N3CCOCC3)nc12 (stereo not drawn) | -7.13 |
| COc1cccc(OCc2cc(C(=O)N3CCCC3c3ccccn3)no2)c1 (stereo not drawn) | 5.99 |
| O=C1COc2ccc(C(=O)COC(=O)Cc3ccsc3)cc2N1 | -37.5 |
| CSCCC(NS(=O)(=O)c1cccs1)C(=O)NCc1cccs1 (stereo not drawn) | -2.1 |

| Compound | hERG current change (%, negative = inhibition) at 10uM [%] |
| --- | --- |
| CCn1ccnc1CN(C)Cc1c(C(=O)N2CCCCCCC2)nc2ccc(Cl)cn12 | -37.1 |
| Cc1noc(C)c1CSc1ccccc1C(=O)OC(C)C(N)=O (stereo not drawn) | 19.2 |
| CC(=O)c1cc(CN2CCCCC2)cc(OC(C)C)c1.Cl | 0.161 |
| O=C1CC(N(O)c2ccccc2)C(=O)N1c1ccc(Cl)c(Cl)c1 (stereo not drawn) | 13.1 |
| O=C(CNC(=O)c1ccccc1)NCCc1nc2ccccc2[nH]1 | 3.07 |
| O=C(O)c1ccccc1N=Nc1ccc(O)cc1 | 4.01 |
| O=C(CSc1nc(-c2ccccc2)cc(=O)[nH]1)N1CCOCC1 | 5.84 |
| CC(C)COc1ccc(C(=O)CCN2CCCCC2)cc1.Cl | -41.4 |
| COc1ccc(C(=O)NCc2nnc(SCC(=O)N3CCCc4ccccc43)o2)cc1OC | -1.22 |
| CCOC(=O)C1CCN(S(=O)(=O)c2c(C)[nH]c(C)c2C(=O)N2CCCC2)CC1 | 8.25 |
| CN1CCN(c2ccccc2NC(=O)c2cccs2)CC1 | -47.5 |
| COC(=O)NNC(=O)C(c1ccccc1)c1ccccc1 | 12 |
| CCOC(=O)C1CCCN(C(=O)c2cnn3c(C(F)F)cc(-c4ccc(C)cc4)nc23)C1 (stereo not drawn) | -38.4 |
| O=C(NCCCN1CCCC1=O)C1CCC(CNS(=O)(=O)c2ccc(Cl)cc2)CC1 (stereo not drawn) | -0.675 |
| COc1ccc(Cl)cc1NC(=O)CN(C)C(=O)CN1C(=O)NC(C)(C)C1=O | 18.2 |
| Cc1ccc(N(CC(=O)N2CCOCC2)S(C)(=O)=O)cc1C | -10.5 |
| NS(=O)(=O)c1ccc(CCN2C(=O)CCC2=O)cc1 | 19.6 |
| O=C(Cn1cnc2c(nnn2Cc2ccc(Cl)cc2)c1=O)N1CCN(c2ccccc2)CC1 | -40.4 |
| Cc1cc(/C=C(/C#N)c2cccc(Cl)c2)c(C)n1C | -15.4 |
| O=C(CN1CCN(S(=O)(=O)c2ccc(F)cc2)CC1)Nc1cc(C(F)(F)F)ccc1Cl | -4.15 |
| CN(C)CCN(C(=O)c1ccc(S(=O)(=O)N(C)CC2CCCO2)cc1)c1nc2cc3c(cc2s1)OCO3.Cl (stereo not drawn) | -43.2 |
| Cc1c(NC(=O)c2ccc(Cl)s2)c(=O)n(-c2ccccc2)n1C | 3.58 |

| Compound | hERG current change (%, negative = inhibition) at 10uM [%] |
| --- | --- |
| COc1ccc(NS(=O)(=O)c2cccc(C(=O)N/N=C/c3ccc4c(c3)OCCO4)c2)cc1 | 8.67 |
| CNC(=O)[C@H](C)[C@@H]1C[C@@]1(C)[C@@H](NC(=O)OCc1ccccc1)c1ccccc1 | 1.03 |
| Cc1ccccc1C(=O)Nc1ccnn1C1CCN(CCCc2ccccc2)CC1 | -78.4 |
| O=C(N/N=C/c1cccc(Oc2ccccc2)c1)c1cccc(Br)c1 | -8.64 |
| COc1cc(C(C)=O)ccc1Oc1cnccn1 | 21.1 |
| CCN1CCN(C(=O)CN2C(=O)COc3ccc(S(=O)(=O)N4CCOCC4)cc32)CC1 | 6.02 |
| COc1cc2cc(Oc3ccc4ccc(=O)oc4c3)c(=O)oc2cc1OC(=O)/C=C/c1ccccc1 | -8.81 |
| CCN1C(=O)[C@H]2[C@@H](c3ccc(-c4ccc5c(c4)OCO5)cc3)N3CCC[C@@]3(C(=O)OC)[C@H]2C1=O.O=C(O)C(F)(F)F | -8.25 |
| COc1ccc(Cn2c(CCC(=O)O)nc3cccnc32)cc1 | 30.3 |
| CCCCOc1ccc(C2CCC(C(C)=O)C(C)C2)cc1 (stereo not drawn) | -6.68 |
| O=C(Nn1c(-c2ccc(F)cc2)nc2ccccc2c1=O)c1cccnc1 | 17.7 |
| Cc1cc(Cl)ccc1NC(=O)CN1C(=O)NC2(CCCC2)C1=O | 6.03 |
| COC(=O)C1=C(c2ccc(F)cc2OCc2ccccc2)C[C@@H]2CC[C@H]1N2C(=O)NCc1ccc2c(c1)OCO2 | 1.56 |
| CCn1cc(C(=O)NCc2cccnc2)c2cc(OC)c(OC)cc2c1=O | 1.88 |
| CNS(=O)(=O)c1cccc(C(=O)OCC(=O)c2ccc(S(=O)(=O)N3CCCCC3)cc2)c1 | 11.4 |
| O=C(Nc1cccc(F)c1)c1cccc2c1C(=O)N(C1CCCCC1)C2 | 12.2 |
| O=C1CCCN1CC(O)CS(=O)(=O)Cc1ccc(Cl)c(Cl)c1 (stereo not drawn) | 5.83 |
| CCOc1cc(C2C(C#N)=C(N)Oc3n[nH]c(-c4ccncc4)c32)cc([N+](=O)[O-])c1O (stereo not drawn) | 22 |
| Cc1ccsc1C(=O)C1CCCN(Cc2cn(C)nc2C)C1 (stereo not drawn) | -40.9 |
| COc1ccc(NS(=O)(=O)c2cccc(C(=O)NNC(=O)COc3ccccc3)c2)cc1 | -6.93 |
| CCC(Sc1nc(-c2ccccc2)c(C#N)c(=O)[nH]1)C(=O)Nc1nnc(C)s1 (stereo not drawn) | 1.73 |
| O=C(Nc1nccs1)c1ccc(Br)o1 | -9.15 |

| Compound | hERG current change (%, negative = inhibition) at 10uM [%] |
| --- | --- |
| CCOC(CNC(=O)C(=O)Nc1cc2c3c(c1)CCN3C(=O)CC2)OCC | -10.2 |
| CCOc1ccc(-c2c(=O)n(OCc3ccccn3)c3ccccc3[n+]2[O-])cc1 | -3.78 |
| CCC(=O)N1CCN(c2cc3c(cc2F)c(=O)c(C(=O)O)cn3CC)CC1 | 19 |
| Cc1cc(OC(C)C(N)=O)nc(-c2ccccc2)n1 (stereo not drawn) | 15.6 |
| CC(C)OCCCNC(=O)c1ccc2c(c1)ncn2C1CCCC1 | 0.0341 |
| O=S(=O)(NCc1ccccc1)NCc1ccccc1 | 24.6 |
| CC12CCC(C(=O)Nc3ccccc3Br)(C/C1=N\O)C2(C)C (stereo not drawn) | 4.44 |
| COC(=O)c1ccc(CSC(=N)N)o1 | 10.9 |
| Cc1cccc(N2C(=O)CSC2c2cccnc2)c1 (stereo not drawn) | 17 |
| COc1ccc(OC)c(NC(=O)CSC2=NCCS2)c1 | -5.75 |
| O=C(OC1CCOC1=O)c1ccc2ccccc2n1 (stereo not drawn) | 15.6 |
| Cc1ccc2c(CN3CCOCC3)cc(=O)oc2c1 | -27.6 |
| COc1ccc(S(=O)(=O)N2CCN(C(=O)C3COc4ccccc4O3)CC2)cc1 (stereo not drawn) | -11.7 |
| COc1ccc(N(CC(=O)Nc2ccc(C(N)=O)cc2)S(=O)(=O)c2ccc(C)c([N+](=O)[O-])c2)cc1 | 24 |
| Cc1nn(C)cc1C=NCCOCc1ccccc1 | 8.51 |
| COCC(=O)Nc1sc2c(c1C(=O)OC)CCCC2 | -11.7 |
| O=C1CC(N2CCN(c3ccccc3F)CC2)C(=O)N1c1ccc2c(c1)OCCO2 (stereo not drawn) | 19.9 |
| Cc1ccc(OCc2cc(C(=O)N3CC4C[C@@H]5CC3C[C@H](C4)C5)no2)cc1C | 15.7 |
| Nc1ncnc2nc[nH]c12 | 17.2 |
| COc1ccc(NC(=O)CS(=O)(=O)c2ccccc2)cc1 | 22.3 |
| O/N=C/c1cccn1-c1ccc(O)cc1 | -15.8 |
